{
  "source": "PubChem BioAssay AID504706",
  "about": "(National Center for Advancing Translational Sciences (NCATS), 2011)",
  "note": "In all, about 320,000 compounds went through this assay and about 200 (0.062%) were called active. The inconclusive results got no clear call from the source; some entries with a clear call stand among them for comparison. Calls follow the shape of the dose curve; as a rule, active = well fitted activation curve with a large enough effect; inconclusive = small, poorly fitted or top-dose-only effect; inactive = no such curve, though single readings can be large or run the other way. Potencies of inconclusive entries are left out as doubtful fits. Potency is read from the fitted curve at half-maximal effect; tags tell the direction and shape of the fitted curve.",
  "data": [
    {"experiment": "qHTS assay for re-activators of p53 using a Luc reporter; also: nearly all actives have a fitted effect of over 45% in size", "conditions": "H1299 p53-A138V BP100-luciferase reporter, luminescence, 24 h; series mostly up to 92.2 µM", "how_it_was_run": "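p53-null H1299 cells stably carrying temperature-sensitive p53-A138V and a BP100-luciferase reporter were pinned with compounds (4-point, 1:5 series) and held 24 hrs at 37 deg C. Luminescence was read 10 min after detection reagent.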", "values": [
      {"smiles": "CCSC1=C(C#N)C(c2ccc(Cl)cc2)C2=C(CCCC2=O)N1", "note": "(stereo not given)", "Potency": "inactive"},
      {"smiles": "Cc1ccc(/C=N/NC(=O)c2csc3c2CCCC3)cc1", "Potency": "inconclusive [activator, partial curve, poor fit]"},
      {"smiles": "CC1=NN(C(=O)Cc2ccc([N+](=O)[O-])cc2)C(O)(c2cccnc2)C1", "note": "(stereo not given)", "Potency": "inactive"},
      {"smiles": "Cc1nc2ccccc2cc1C(=O)N(C)Cc1ccccc1", "Potency": "inactive"},
      {"smiles": "O=C(Cc1ccc2c(c1)CCCC2)Nc1ccc2ccccc2c1", "Potency": "inconclusive [activator, partial curve, poor fit]"},
      {"smiles": "COc1ccc(C2SCCN2C(=S)Nc2ccc(Cl)cc2)cc1", "note": "(stereo not given)", "Potency": "inconclusive [activator, partial curve, poor fit]"},
      {"smiles": "CCOc1ccc(N2C(=O)CC(C(C)c3ccccc3)C2=O)cc1", "note": "(stereo not given)", "Potency": "inconclusive [activator, single point]"},
      {"smiles": "Cc1cc2nc(-c3ccc(SCC(=O)Nc4ccc(S(=O)(=O)NC5CC5)cc4)nc3)[nH]c2cc1C", "Potency": "active: 2.82 µM"},
      {"smiles": "Cc1cc(C)nc(SCc2nc3ccccc3n2C)n1", "Potency": "inconclusive [activator, partial curve, poor fit]"},
      {"smiles": "Cc1ccc(C(=O)N2CCN3C(=O)c4ccccc4C23c2ccc(Cl)cc2)cc1", "note": "(stereo not given)", "Potency": "inactive"},
      {"smiles": "COc1nc(Oc2ccc(=O)[nH]n2)nc(N2CCOCC2)n1", "Potency": "inconclusive [activator, single point]"},
      {"smiles": "COc1cccc(NC(=S)NN=C2CCCCCC2)c1", "Potency": "inactive"},
      {"smiles": "O=C(COc1ccc(C(=O)c2ccccc2)cc1)NCc1ccc(F)cc1", "Potency": "inconclusive [activator, full curve, poor fit]"},
      {"smiles": "COc1ccc2[nH]c(C(=O)O)c(CCC(=O)O)c2c1", "Potency": "inactive"},
      {"smiles": "O=C(CN1CCOc2ccccc21)NCc1cccs1", "Potency": "inconclusive [activator, single point]"},
      {"smiles": "O=C(Nc1nc2ccccc2s1)c1ccc([N+](=O)[O-])o1", "Potency": "inconclusive [activator, partial curve, poor fit]"},
      {"smiles": "CC(C(=O)O/N=C(\\N)c1ccccn1)c1ccc([N+](=O)[O-])cc1", "note": "(stereo not given)", "Potency": "inconclusive [activator, partial curve, poor fit]"},
      {"smiles": "O=C(CSCc1ccc(F)cc1)Nc1nc2c(s1)CCCC2", "Potency": "inconclusive [activator, partial curve, poor fit]"},
      {"smiles": "COc1cccc(-c2ccc(SCC(=O)c3ccccc3)nn2)c1", "Potency": "inconclusive [activator, single point]"},
      {"smiles": "O=C(CNC(=O)c1ccc(-c2ccccc2)cc1)OCc1ccc(Br)cc1", "Potency": "inconclusive [activator, partial curve, poor fit]"},
      {"smiles": "CC(/C=N/Nc1nc(C)cc(=O)[nH]1)=C\\c1ccccc1", "Potency": "inactive"},
      {"smiles": "COc1cc(C(=O)N2CCCc3ccccc32)cc(OC)c1OC", "Potency": "inconclusive [activator, single point]"},
      {"smiles": "COCCN(C(=O)Cn1nnc2ccccc21)C(C(=O)NC1CCCC1)c1cc(OC)ccc1OC", "note": "(stereo not given)", "Potency": "inconclusive [activator, single point]"},
      {"smiles": "COc1ccccc1N1C(=O)S/C(=C\\c2cccs2)C1=O", "Potency": "inconclusive [activator, single point]"},
      {"smiles": "CCn1c(SCC(=O)NCc2ccc3c(c2)OCO3)nnc1-c1cccs1", "Potency": "inactive"},
      {"smiles": "CCOc1ccc(C(=O)NC(=S)Nc2cccnc2)cc1", "Potency": "inconclusive [activator, partial curve, poor fit]"},
      {"smiles": "CC1(C)CC(=O)C(N=Nc2ccc(F)cc2)=C(O)C1", "Potency": "inconclusive [activator, full curve]"},
      {"smiles": "O=C1/C(=C/c2ccco2)CCc2ccccc21", "Potency": "inconclusive [activator, full curve, poor fit]"},
      {"smiles": "COc1cccc(-c2ccc3ncnc(NCc4cccc(C)c4)c3c2)c1", "Potency": "inactive"},
      {"smiles": "CC1(C)Cc2c(c(N3CCOCC3)nc3sc4c(NCc5ccccc5)nnnc4c23)CS1", "Potency": "inactive"},
      {"smiles": "COc1ccc2oc(-c3ccc(C)c(NC(=O)c4ccc(N5CCOCC5)c([N+](=O)[O-])c4)c3)nc2c1", "Potency": "inconclusive [activator, partial curve, poor fit]"},
      {"smiles": "COc1ccc(-c2nc3nc(C)c(Cc4ccccc4)c(=O)n3[nH]2)cc1", "Potency": "inconclusive [activator, partial curve, poor fit]"},
      {"smiles": "CCN1CCN(C(=O)c2cn(CCOC)c(=O)c3c2c2ccccc2n3C)CC1", "Potency": "inactive"},
      {"smiles": "COc1ccc(C(=O)N/N=C(\\C)c2ccccn2)cc1OC", "Potency": "inconclusive [activator, full curve, poor fit]"},
      {"smiles": "CSCC(=O)NC1CCCc2c1cnn2-c1ccc(C)c(C)c1", "note": "(stereo not given)", "Potency": "inconclusive [activator, single point]"},
      {"smiles": "Cc1cccc(Nc2nnc(SCC(=O)Nc3cccc(S(=O)(=O)N4CCCCC4)c3)s2)c1", "Potency": "inconclusive [activator, full curve, poor fit]"},
      {"smiles": "CCc1cccc(OCC(=O)N(C)CC(=O)Nc2cccc(F)c2)c1", "Potency": "inactive"},
      {"smiles": "O=C(Nc1cccc(-c2ccc(N3CCOCC3)nn2)c1)c1ccc([N+](=O)[O-])cc1", "Potency": "inactive"},
      {"smiles": "O=S(=O)([O-])CCC[n+]1ccc(Oc2ccccc2)cc1", "Potency": "inconclusive [activator, single point]"},
      {"smiles": "O=C(/C=C/c1cccs1)Nc1ccc([N+](=O)[O-])cc1", "Potency": "inconclusive [activator, partial curve, poor fit]"},
      {"smiles": "c1ccc(C2CC(c3cccs3)=NN2c2ccccc2)cc1", "note": "(stereo not given)", "Potency": "inactive"},
      {"smiles": "CCOc1ccc2nc(NC(=O)CN3CCN(CC)CC3)sc2c1", "Potency": "inconclusive [activator, partial curve, poor fit]"},
      {"smiles": "Cc1ccccc1C(=O)Nc1ccnn1C1CCN(C(C)Cc2ccccc2F)CC1", "note": "(stereo not given)", "Potency": "inactive"},
      {"smiles": "CC1(C)Cc2c(cnn2-c2ccc(F)cc2)C(NC(=O)CCCN2CCCCC2=O)C1", "note": "(stereo not given)", "Potency": "inconclusive [activator, single point]"},
      {"smiles": "C=CCOc1ccc(C(=O)Nc2ncn[nH]2)cc1", "Potency": "inconclusive [activator, single point]"}
    ]}
  ]
}
